The record followed here is the supplement of paper PMC11417369.

The list shows a part of the results.

The assay concerns PF3D7_0420300 AP2 domain 1 (GST-tagged). In words: gcPBM binding intensity (ln(normalized median fluorescence intensity)); higher = stronger DNA binding. In a few lines:
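Probes on an Agilent 4 × 180k array were primer-extended, double-stranded and 36 bp long, taken from intergenic genomic regions, with negative controls added. GST-tagged P. falciparum DNA-binding domains from E. coli, about 25 μg on average, were applied to the array for 1 h in 1× PBS containing 1% milk, 0.2 mg/ml BSA, 0.5% salmon testes DNA and 0.03% Triton X-100. Binding intensity, obtained after Alexa488 anti-GST antibody detection and a 488 nm scan, is the highest Masliner-normalised natural-log median intensity across replicate spots of either probe orientation.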
In the case of “AAACTTTACATTACTTGTACATATATTCTATATAAT [XGTACX_site8640]”, the “gcPBM binding intensity (ln)” value came to 9.46.
The value for “TAAAGAAATAAATACATACACACATATATATATATA [CACACA_site3363]” was 9.46; that for “TTTGATAATAAGATATAATACTTAAATATATATATA [GTGCAC_negctrl_site339]” was 8.85; that for “AAATATATATTCAAAAGTACACAATTTGTTAATAAT [XGTACX_site8917]” was 9.25.
The value for “TATTTTACGCGGTTTATAATGACATGTTCTATATTT [CACACA_negctrl_site1184]” was 9.43.
With “TAAATATATAAATACACACACACCAAAGCAATAGAT [CACACA_site5605]”, the “gcPBM binding intensity (ln)” value stood at 10.2.
The value for “TCCATATGCATGTATTGTACTGTAATATATTAAAAA [XGTACX_site472]” was 9.09; that for “AAAAAAAAAAAAGAAACACACACATATATATATATA [CACACA_site8525]” was 9.69; that for “AGCAGTCGACAGGACAGTACACAGTAGCCAGGAAAT [XGTACX_site4929]” was 9.32.
Take “TAATTAAATAAAAAAAAATATATATATATATATATA [XGTACX_negctrl_site616]”: the “gcPBM binding intensity (ln)” value was 9.01.
For the sequence “TTTTTTAAAAATAACTGTACAGAGGCTGTTAGGATA [XGTACX_site2521]”, the “gcPBM binding intensity (ln)” value was 9.19.
Then “AGACAATATTAATAAGGTACACATATATATTAAAAA [XGTACX_site6709]”, with 9.42.
The value for “AGCCCTTTTTTTTTTTAGAATATTGCATAATTATAT [XGTACX_negctrl_site546]” was 9.49; that for “TATATAAATATATCCACACACATACCTATATTAATA [CACACA_site6184]” was 9.71.
For the sequence “GTATTGTATGGATGGGGTACTATATATATATATTTT [XGTACX_site1694]”, the “gcPBM binding intensity (ln)” value came to 9.72.
The value for “TAAGGGAGAGATTTGTATCATAAGCAACTTTCAAAA [CACACA_negctrl_site1436]” was 8.99.
With “TTATAATTAAATTTCACACAGTTCATAACATAATTA [CACACA_site5501]”, the “gcPBM binding intensity (ln)” value amounted to 8.99.
On to “TTTATATGTTTTAAGTGTACACATATAATGTATTTT [XGTACX_site3069]”, for which the “gcPBM binding intensity (ln)” value is 9.33.
The value for ACTTTCAACATGAAGTTGCACTTTTTTTTTTTTCTT was 9.47; that for “TATTGAATAAAATGCACACGCATGCGTTATTTATTA [CACACA_site3479]” was 9.17.
The value for “AAACGTATTCTATAAAGTACATTATTATAGTAGACC [XGTACX_site8068]” was 9.28.
For “TAAAAAAATTATATTTGTACATATTAATATAGCCTT [XGTACX_site4833]”, the “gcPBM binding intensity (ln)” value was 8.96.
Then “ATATGTCCATATAGTAAATGTTACATTTTAAAGCGC [XGTACX_negctrl_site168]”, with 9.28.
The value for “AAAATATTTATTTTTTGTACACATAAAAACGCACTT [XGTACX_site4132]” was 9.14; that for “CATATTTTGTGAAAAAGTACATATATATATATATAT [XGTACX_site6295]” was 9.04; that for ATTCTTAAAAAATAAGTGCAAAATAATTAAATAAAT was 9.2.
Take “AGAATGGTTTATAAAGGTACGTAATTTTTAATTTTA [XGTACX_site383]”: the “gcPBM binding intensity (ln)” value is 9.06.
Regarding “TTATATAAAGAATGTACACACAGAAATGCACAGACA [CACACA_site5288]”, the “gcPBM binding intensity (ln)” value came to 9.81.
“AATATGTACAGACATACACACATATTTATATTTATA [CACACA_site6694]”: the “gcPBM binding intensity (ln)” value came out at 9.47.
Then “GCTTATATTAATAAGGTGCTTTTTATTTCGTGTGTA [GTGCAC_site9649]”, with 9.65; and “TCATAGTATAAACACACACACACACCCATATATATA [CACACA_site8512]”, with 10.3; and “TAGTATTAAATATATACACACATATATACCTATAGA [CACACA_site5219]”, with 9.58.
Then AAAATGTAATATTGGGTGCACAATAAGTTTGATGTC, with 9.57; and “TGAAAAGATAAAAAAAGTACACACACACATATATAT [XGTACX_site6504]”, with 10.2.
Then “TTATAAATAATGAGAAACATTAAATTTAATCATAAA [CACACA_negctrl_site523]”, with 8.93; and “TTTAGTGTTATAAAAAGTACATAATAATTCCTTTTC [XGTACX_site3208]”, with 8.95; and “AAAAATTCAATAGGACGTACTAAAACATTCATTAAT [XGTACX_site1712]”, with 9.34.
For the sequence “TACTATATATATATATATATATATATATATATTTAT [GTGCAC_negctrl_site593]”, the “gcPBM binding intensity (ln)” value was found to be 8.93.
On to “AGCCCAAAAAAGTAGACATGCAAAAACTTTACAACT [TGCATGCA_site550]”, for which the “gcPBM binding intensity (ln)” value was determined as 9.17.
Then “AAAAAAAAAAAGAAGGGTACATATTATATATAATAT [XGTACX_site6204]”, with 9.43; and “TATATATAAACATAATGTACATATAATAAGTAATAT [XGTACX_site497]”, with 9.45.
On to “CACGTGAAAATACAAGCATGCAAGCTTTTTTTTTCT [TGCATGCA_site642]”, for which the “gcPBM binding intensity (ln)” value was 9.01.
Then “AATGAGAATTTTATTACACACTTTAATATATTTTCA [CACACA_site784]”, with 9.28.
Then “AATTTTCAATAGTATACACACAATTCTATAAATATA [CACACA_site6650]”, with 9.29; and “AATTTTTTTATAGCACGTACAAAAATACAAAATACA [XGTACX_site1569]”, with 9.13; and “AAAAAAATAAATAAATGTACACATATATATATATAT [XGTACX_site4350]”, with 9.08.
With “ATCATTTATATTTTATGTACATATATAATTATATTT [XGTACX_site2129]”, the “gcPBM binding intensity (ln)” value was 9.52.
Consider “AGTGAAATTTTAGTCACACAGTTTTATCTTTAAGAA [CACACA_site5202]”, for which the “gcPBM binding intensity (ln)” value worked out at 9.01.
“TTATGTCTAATGAAATGTACATGAATAAATTAAAGT [XGTACX_site8138]”: the “gcPBM binding intensity (ln)” value stood at 9.42.
Then “TAGAGGAATATAATATGTACATAATATAATGTATAT [XGTACX_site2838]”, with 9.36.
Regarding “AATTATATAAGCCACGCATGTGTGCATAAAAATACA [TGCATGCA_site114]”, the “gcPBM binding intensity (ln)” value turned out to be 9.38.
Then “ATATATATATATATTGCACACATATAAATATATATA [CACACA_site8167]”, with 9.26; and “GAAAAATTTAATTATTGTACGTTTCATCTATATTTA [XGTACX_site414]”, with 9.33.
The value for “TTTTTGTTTTTTTTGTGTACTTATCAAATATATATA [XGTACX_site7273]” was 9.47.
Regarding “CAAAAAAAATTATACACACACACACCCATATATATA [CACACA_site1044]”, the “gcPBM binding intensity (ln)” value is 10.2.
In the case of “TACTATATATTATATAGTACATAAGATATACAACAT [XGTACX_site2929]”, the “gcPBM binding intensity (ln)” value came out at 9.32.
Turning to “AAGAAAATTAACCCATGTACTTATGTAGATAGCAAG [XGTACX_site1049]”, the “gcPBM binding intensity (ln)” value turned out to be 9.48.
The value for “TAAAACTTAATATAAACACACAAAAATTAATAAATA [CACACA_site4370]” was 9.6; that for “CAATATTATAGATATACACACATAATGTGTAAAAAC [CACACA_site6631]” was 9.76; that for “TCTTGATCTTATATATATCTACAATATTTTATACAT [TGCATGCA_negctrl_site569]” was 9.48.
The value for “ATTACAAATATAATATGTACTTAAATATAATTAAAA [XGTACX_site7038]” was 9.02; that for “ATTACTAAAACAAAATGTACATATGATTTAAGAAAA [XGTACX_site5992]” was 9.05.
The value for “TTTTTTTTTTAGAGTACACACTTTTTTACATTTATG [CACACA_site5990]” was 9.33.
Consider “TAACTTCAAAAATCTTGTACATAAATATATAAAACA [XGTACX_site8574]”, for which the “gcPBM binding intensity (ln)” value was 9.1.
The value for “AATTTTGTCCTATGTTGTACTATTTTGCTCTATTTT [XGTACX_site7139]” was 9.84; that for “ATAAATAGTATTATATGTACACATAATATTTATAAA [XGTACX_site4751]” was 9.21.
On to “TTTCTCTCTTATAAAATACACACGAACAATCATATT [CACACA_site509]”, for which the “gcPBM binding intensity (ln)” value turned out to be 9.29.
Then “AAAAATGGTGTTAACACACACATATATATATATATA [CACACA_site571]”, with 9.43; and “TTAATATAGGGAAAAAAAAGAAAATCGAAAATGTGT [CACACA_negctrl_site834]”, with 9.57; and “CACATTTTTTAAATATTTTTCTACTCCATAATGTTT [CACACA_negctrl_site557]”, with 9.3.
The value for “TATAATTATGATGATAGTACGTATGAGTTCAAAACA [XGTACX_site4211]” was 9.3; that for “ATAGTTACACGCCAAAAAAAAAAAAAAAAAAAAAAA [CACACA_negctrl_site1133]” was 8.54.
“TTAAAATGATTGTTACTTTTTTTTCCGTTTTCTTAA [CACACA_negctrl_site1195]”: the “gcPBM binding intensity (ln)” value was 9.19.
The value for “CTTAAAAAAATATATTGTACATATATATATACAACT [XGTACX_site1281]” was 9.12; that for “TATATTCCCATATAACGTACATATGAGACACCAACT [XGTACX_site8099]” was 9.48; that for “GTTTATATATTATAAAGTACATATGAATTTAATAAT [XGTACX_site3601]” was 9.01.
The value for “AAAAAATAAATAAACATAAATAAATAAATAAATATA [XGTACX_negctrl_site340]” was 9.41; that for “ATTTCAAAATATAGCTGTACAAAAAATGTAGATATA [XGTACX_site5843]” was 9.36.
“GATCATTCTAAATATAAACACACATAAATATATACA [CACACA_site9108]”: the “gcPBM binding intensity (ln)” value is 9.48.
On to “ATAATATAATAATATTGTACATGGTCAAATATGAAA [XGTACX_site8390]”, for which the “gcPBM binding intensity (ln)” value is 9.19.
As to “ATAAAACTTATTTAACGTACATATTTTATATACCTT [XGTACX_site5353]”, the “gcPBM binding intensity (ln)” value came to 9.37.
Then “TATAAAATAAATAACAAAAAAAATAAAATAAAAATA [TGCATGCA_negctrl_site297]”, with 9.41; and “TTTTTTTTTTAGTATGAACACACATATATATTATAA [CACACA_site8957]”, with 9.23; and “AAAAAATACATCAAAAGAAACATATATATATATATA [GTGCAC_negctrl_site719]”, with 9.23.
“TATAGCAAAATATTCACACAAACTATTAATAAAAGT [CACACA_site5795]”: the “gcPBM binding intensity (ln)” value stood at 9.55.
Then “AATGGTTATAATATATGTACATATAAATATACTGAA [XGTACX_site8533]”, with 9.26; and “ATATAAGTACCTATAACACACATATATTATAAGTAT [CACACA_site7281]”, with 9.6; and “TAGAATAAATTAATTACACACGGAATTATATATATA [CACACA_site1616]”, with 9.51.
